Laboratory results reported in publication PMC11477141, “Chemokine Receptor N-Terminus Charge Dictates Reliance on Post-Translational Modifications for Effective Ligand Capture and Following Boosting by Defense Peptides” (International Journal of Molecular Sciences, 2024).
Results are given in words; binding and its absence hold for the method and conditions named. Some entries that bind do so weakly or less than the wild type. Where a sequence is shown, tags or fusion partners need not be part of it.

What was measured:
[1] = target: T1, FAM-labelled peptide corresponding to the naked (unmodified) CCR5 N-terminus (human); experiment: fluorescence polarisation; FAM-labelled receptor N-terminal peptide as probe at 250 nM in FP buffer (1:3, PBS:MilliQ), black 384-well plate; basic peptide titrated in a two-fold series, 12.21 nM to 100 µM (told for C21TP^81-111); triplicates; Kd fitted in GraphPad Prism 9; both purified
T1 sequence (peptide, 5,6-carboxyfluorescein (5,6-FAM) on the N-terminus): ADYQVSSPIYDINYYTSEP

[2] = target: T2, FAM-labelled peptide corresponding to the naked (unmodified) CCR1 N-terminus (human); experiment: as above
T2 sequence (peptide, 5,6-carboxyfluorescein (5,6-FAM) on the N-terminus): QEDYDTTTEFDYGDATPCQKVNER

| Binder | binding [1] | binding [2] |
| --- | --- | --- |
| GIGDPVTCLKSGAICHPVFCPRRYKQIGTCGLPGTKCCKKP (peptide, UniProt O15263 24-64) [human beta defensin 2] | no binding | binds |
| DSHEKRHHGYRRKFHEKHHSHREFPFYGDYGSNYLYDN (peptide, UniProt P15515 20-57) [histatin1] | no binding | binds |
| RKDRGASKTGKKGKGSKGCKRTERSQTPKGP (peptide, UniProt O00585 104-134, looked up, also called C-terminal peptide of CCL21; source: bought: Caslo (Lyngby, Denmark)) [C21TP^81-111, basic C-terminal peptide of the chemokine CCL21 (last 31 aa, residues 81-111)] | no binding (tested: 100 µM) |  |
